Reference: PubChem BioAssay (Tox21)
Several values for one entry are separate records, joined by “and”; a condition that tells them apart may be missing. Equal entries are not always repeated. Inconclusive means that the source gave no clear call. Such entries were picked first, then a sample of the others. Potencies of inconclusive entries are doubtful fits and often do not repeat. Some compounds were tested as several samples or in several runs, with calls that do not always agree. Activity calls are given as the source filed them. Calls follow the shape of the dose curve; as a rule, active = well fitted cell-killing curve with a large enough effect in the repeat runs; inconclusive = weak or mixed curves; inactive = no such curve, though single readings can be large or run the other way.

Assay: qHTS assay for identifying genotoxic compounds that show differential cytotoxicity against isogenic chicken DT40 cell lines with known DNA damage response pathways - Rad54/Ku70 mutant cell line (AID 743015); also: nearly all actives have a fitted effect of over 60% in size
Conditions: DT40 Rad54/Ku70 mutant viability, CellTiter-Glo, 40 h; activity change, negative = cytotoxicity: at 66.8 µM (top of the series)
From the text: National Center for Advancing Translational Sciences [NCATS]
NIH Chemical Genomics Center [NCGC]
U.S. Environmental Protection Agency [EPA]
National Institutes of Environmental Health Sciences [NIEHS]
National Toxicology Program [NTP]
U.S. Food and Drug Administration [FDA]
DNA repair pathways play a critical role in cellular homeostasis by repairing DNA damage induced by endogenous processes and xenobiotics. Isogenic chicken DT40 cell lines deficient in different DNA repair pathways can be used to identify genotoxic compounds and aid in characterizing the nature of the DNA damage induced. Two DNA repair-deficient cell lines with disrupted genes, Rad54/Ku70 or Rev3, were used to screen the Tox21 10K compound library. Possible genotoxicity was based on the presence of a significant increase in cytotoxicity in one or more of the DNA repair-deficient cell lines compared to that observed in the parental DNA repair-proficient cell line. CellTiter Glo viability assay (Promega, Madison, WI) was used to measure cell viability in these cells after compound treatment. This assay includes the data from the Rad54/Ku70 mutant cell line.
Tox21 Assay Protocol Summary:
300 DT40 mutant cells in 5 uL/well were dispensed into white, solid-bottom 1536-well plates using a Multidrop Combi (ThermoFisher Scientific, Waltham, MA) dispenser. After the assay plates were incubated at 37 C/5% CO2 for approximately 0.5 hour, 23 nL of compounds dissolved in DMSO, positive controls or DMSO only was transferred into the assay plate by a pintool work station (Kalypsys, San Diego, CA). The assay plates were incubated at 37 C/5% CO2 for 40 hours. After 5 uL per well of CellTiter-Glo reagent was added into each well of the assay plates, the plates were incubated for 30 min at room temperature and the luminescence intensity of the plates was measured using a ViewLux (PerkinElmer, Shelton, CT) plate reader.
% is scaled to controls: 0 for no effect and ±100 for the full control effect; potency is read from the fitted curve at half-maximal effect; tags tell the direction and shape of the fitted curve.

| SMILES | Potency | activity change, negative = cytotoxicity |
| --- | --- | --- |
| CC[C@H](C)COC(=O)/C=C/c1ccc(N=Cc2ccc(OC)cc2)cc1 | inconclusive: 68.5 µM [cytotoxic, single point] |  |
| c1ccc2scnc2c1 | inactive |  |
| O=C(NOCC1CC1)c1ccc(F)c(F)c1Nc1ccc(I)cc1Cl | inconclusive: 33.5 µM [cytotoxic, single point] |  |
| CCOC(C)=O | inactive |  |
| Cn1c(N)nc2nc[nH]c2c1=O | inconclusive: 67.8 µM [cytotoxic, single point] |  |
| Cc1ccc2c(c1)C(=O)OC2=O | inactive |  |
| COC(=O)C(C)Oc1ccc(Oc2ncc(C(F)(F)F)cc2Cl)cc1 (stereo not given) | inconclusive: 69.5 µM [cytotoxic, single point] and inconclusive: 68.6 µM [cytotoxic, single point] |  |
| c1ccc2cc3c4ccccc4c4ccccc4c3cc2c1 |  | inactive: 7.21% [at 95.1 µM] |
| CCC1(CO)COCOC1 | inconclusive: 68.3 µM [cytotoxic, single point] |  |
| CC(=O)[C@]1(O)Cc2c(O)c3c(c(O)c2[C@@H](O[C@H]2C[C@H](N)[C@H](O)[C@H](C)O2)C1)C(=O)c1ccccc1C3=O | active: 0.0033 µM |  |
| CCCCCCCCCC=O |  | inactive: 7.78% |
| O=C1OC(c2ccc(O)cc2)(c2ccc(O)cc2)c2ccccc21 | inconclusive: 33.5 µM [cytotoxic, single point] and inconclusive: 68.6 µM [cytotoxic, single point] |  |
| CC(C)(C)C(=O)C1C(=O)c2ccccc2C1=O | inconclusive: 67.9 µM [cytotoxic, single point] |  |
| CCOC(=O)NNc1ccc(N(CC)CC(C)O)nn1 (stereo not given) | inconclusive: 33.5 µM [cytotoxic, single point] |  |
| ClC/C=C\CCl |  | inactive: -0.471% [at 95.1 µM] |
| OC[C@H]1O[C@@H](n2cnc3c(=S)nc[nH]c32)[C@H](O)[C@@H]1O | inconclusive: 29.8 µM [cytotoxic, partial curve, poor fit] |  |
| CCCCC/C=C\C=C\C(=O)OCC | active: 12.7 µM |  |
| Cc1ccc2c(Br)cc(Br)c(O)c2n1 | active: 8.41 µM |  |
| COC(=O)CCCCC(=O)OC | inactive |  |
| O=S(=O)(O)c1cc(S(=O)(=O)O)c2c(N=Nc3ccccc3)c(O)ccc2c1 | inactive |  |

| SMILES | Potency | activity change, negative = cytotoxicity |
| --- | --- | --- |
| CSC(=O)c1cccc2nnsc12 | inconclusive: 77 µM [cytotoxic, single point] |  |
| CCOC(=O)c1ccc(C#Cc2ccc3c(c2)C(C)(C)CCS3)nc1 | active: 29.8 µM |  |
| O=C(OCc1ccccc1)c1ccc(O)cc1 | inconclusive: 33.5 µM [cytotoxic, single point] |  |
| NNCCc1ccccc1 | inactive and inconclusive: 68.8 µM [cytotoxic, single point] |  |
| CCCCCCC/C=C/C=O | active: 43.3 µM |  |
| CCCCOc1ccc(OCCCN2CCOCC2)cc1 | active: 2.27 µM |  |
| O=C=Nc1cccc(C(F)(F)F)c1 | inconclusive: 68.1 µM [cytotoxic, single point] |  |
| NCc1ccc(S(N)(=O)=O)cc1 |  | inactive: 1.04% [at 30.7 µM] |
| CCN(CC)CCNC(=O)c1c(C)[nH]c(/C=C2\C(=O)Nc3ccc(F)cc32)c1C | active: 7.5 µM |  |
| Cc1cc(=O)oc2cc(O)ccc12 | inconclusive: 30.6 µM [cytotoxic, partial curve] |  |
| C=Cc1ccc(S(=O)(=O)O)cc1 | active: 2.17 µM |  |
| Cc1cccc(OCCOc2cccc(C)c2)c1 | inconclusive: 14.5 µM [cytotoxic, partial curve, poor fit] |  |
| Cc1c(OCC(F)(F)F)ccnc1CS(=O)c1nc2ccccc2[nH]1 (stereo not given) | inconclusive: 33.5 µM [cytotoxic, partial curve, poor fit] and inconclusive: 68.6 µM [cytotoxic, single point] |  |
| OC(CCN1CCCC1)(c1ccccc1)C1CCCCC1 (stereo not given) | inconclusive: 14.3 µM [cytotoxic, single point] |  |
| C=CCN1C[C@H](C(=O)N(CCCN(C)C)C(=O)NCC)C[C@@H]2c3cccc4[nH]cc(c34)C[C@H]21 | inconclusive: 33.5 µM [cytotoxic, single point] |  |
| CCOC(=O)C1=C(C)NC(C)=C(C(=O)OC)C1c1cccc(Cl)c1Cl (stereo not given) | inconclusive: 29.8 µM [cytotoxic, single point] |  |
| CCCOC(=O)NCCCN(C)C | inactive |  |
| CCN(C(=O)N(CC)c1ccccc1)c1ccccc1 | inconclusive: 27.3 µM [cytotoxic, single point] |  |
| COc1c(N2C[C@@H]3CCCN[C@@H]3C2)c(F)cc2c(=O)c(C(=O)O)cn(C3CC3)c12 | inconclusive: 33.5 µM [cytotoxic, single point] |  |
| CCCCOC(=O)C(C)O (stereo not given) |  | inactive: -4.39% |
